# Source: US20180030098A1 (NAVIGO PROTEINS, published 2018)
# Numbering of substitutions follows the chain as printed.
# B1: SEQ ID NO 17 (designed binder)
# chain: MQIFVKTLTEYSYMYGKTITLEVEPSDTIENVKAKIQDKEGIPPDQQRLIWAGKQLEDGRTLSDYNIQNPDILHLVLRLRAA
# B2: Affilin 139808 (designed binder)
# chain: B1 chain with V5L, E10Q, Y13E, M14D, Y15G, T18I, N69Q
# B3: Affilin 139817 (designed binder)
# chain: B1 chain with Y11A, S12M, Y13G, M14W, Y15D, P44L
# B4: Affilin 139826 (designed binder)
# chain: B1 chain with Y11H, S12D, Y13A, M14Y, Y15G, Q68T, N69H, R80C
# B5: Affilin 139829 (designed binder)
# chain: B1 chain with E10P, Y11E, S12Q, Y13H, T18I, Q68R, N69H
# B6: SEQ ID NO 8 (designed binder)
# chain: B1 chain with S12E, Y13P, M14E, Y15W, Q68G, N69E
# B7: SEQ ID NO 9 (designed binder)
# chain: B1 chain with Y11S, S12D, Y13W, M14Y, Y15T, Q68G, N69H
# B8: SEQ ID NO 10 (designed binder)
# chain: B1 chain with E10P, Y11W, S12R, Y13G, M14Y, Y15D, Q68I, N69H, P70A
# B9: SEQ ID NO 11 (designed binder)
# chain: B1 chain with Y11E, S12D, M14Y, Y15N, Q68H, N69H
# B10: SEQ ID NO 12 (designed binder)
# chain: B1 chain with E10M, Y11E, S12Q, Y13A, M14G, N69A
# B11: SEQ ID NO 13 (designed binder)
# chain: B1 chain with S12E, Y13P, M14E, N69H
# B12: SEQ ID NO 14 (designed binder)
# chain: B1 chain with Y11S, S12E, Y13R, M14W, N69H
# B13: SEQ ID NO 15 (designed binder)
# chain: B1 chain with E10D, Y11H, S12E, Y13M, M14N, N69H
# B14: SEQ ID NO 16 (designed binder)
# chain: B1 chain with Y11G, S12D, Y13Q, M14W, N69H
# B15: SEQ ID NO 18 (designed binder)
# chain: B1 chain with Y11Q, S12D, Y13D, M14Y, Y15H
# B16: SEQ ID NO 19 (designed binder)
# chain: B1 chain with Y11Q, S12D, Y13G, M14Y, Y15H
# B17: SEQ ID NO 20 (designed binder)
# chain: B1 chain with E10Q, Y11D, S12P, M14R
# B18: SEQ ID NO 21 (designed binder)
# chain: B1 chain with E10P, Y11P, Y13M, M14N, Y15W
# B19: SEQ ID NO 22 (designed binder)
# chain: B1 chain with E10M, Y11E, S12N, M14W, Y15G
# B20: SEQ ID NO 23 (designed binder)
# chain: B1 chain with Y11P, S12T, Y13M, M14Q, Y15H
# B21: SEQ ID NO 24 (designed binder)
# chain: B1 chain with Y11P, S12D, Y13R, M14Q
# B22: SEQ ID NO 26 (designed binder)
# chain: B1 chain with E10Y, Y11P, S12Q, Y13R, M14E
# B23: SEQ ID NO 27 (designed binder)
# chain: B1 chain with E10P, Y11Q, S12D, Y13M, M14H, Y15Q
# B24: SEQ ID NO 28 (designed binder)
# chain: B1 chain with E10P, Y11N, S12M, Y13E, M14Y, Y15H
# B25: SEQ ID NO 30 (designed binder)
# chain: B1 chain with E10P, Y11Q, S12D, Y13M, M14H, Y15Q
# B26: SEQ ID NO 31 (designed binder)
# chain: B1 chain with E10Q, Y11W, S12E, Y13E, M14Y, Y15S
# B27: SEQ ID NO 32 (designed binder)
# chain: B1 chain with E10D, Y11D, S12K, Y13G, M14Y, Y15D
# B28: SEQ ID NO 35 (designed binder)
# chain: B1 chain with E10Q, Y11E, S12T, M14Y, Q68R, N69H
# B29: SEQ ID NO 36 (designed binder)
# chain: B1 chain with E10Q, Y11Q, Y13E, M14Y, Y15S, Q68R, N69H
# B30: SEQ ID NO 37 (designed binder)
# chain: B1 chain with S12Q, Y13A, M14P, Y15N, Q68R, N69H
# B31: SEQ ID NO 38 (designed binder)
# chain: B1 chain with Y11Q, Y13Q, M14Y, Y15G, Q68R, N69H
# B32: SEQ ID NO 40 (designed binder)
# chain: B1 chain with E10Q, Y11S, S12D, Y13P, M14H, Q68R
# B33: SEQ ID NO 41 (designed binder)
# chain: B1 chain with E10A, Y11P, S12Q, Y13D, Q68R
# B34: SEQ ID NO 42 (designed binder)
# chain: B1 chain with E10Q, Y11M, Y13D, Y15R, Q68R
# B35: SEQ ID NO 43 (designed binder)
# chain: B1 chain with E10D, Y11R, S12D, Y13M, M14Y, Y15Q, Q68R
# B36: SEQ ID NO 44 (designed binder)
# chain: B1 chain with E10S, Y11D, S12Y, Y15N, Q68R
# B37: SEQ ID NO 45 (designed binder)
# chain: B1 chain with E10D, Y11Q, S12P, Y13D, M14W, Q68R
# B38: SEQ ID NO 46 (designed binder)
# chain: B1 chain with E10A, Y11G, S12D, M14Y, Y15N, Q68R
# B39: SEQ ID NO 47 (designed binder)
# chain: B1 chain with E10P, S12E, Y13Q, M14G, Q68R
# B40: SEQ ID NO 48 (designed binder)
# chain: B1 chain with Y11H, S12E, Y13K, M14W, Y15A, Q68R
# B41: SEQ ID NO 52 (designed binder)
# chain: B1 chain with E10G, Y11G, S12D, Y13H, M14G, Q68V
# B42: Affilin 139756 (designed binder)
# chain: B1 chain with E10T, Y11W, S12E, Y13P, M14E, Q68S, N69A
# notes: Ubiquitin mutein with PDI motif
# B43: Affilin 142232 (designed binder)
# chain: B1 chain with E10W, Y11D, S12P, M14Q, P44S
# notes: Ubiquitin mutein with PDI motif and one further substitution in position 38
# B44: 139864 (designed binder)
# Affilin of two ubiquitin moieties: MQIFVHTPTGKTITLEVEPSDTIENVKAKIQDKEGIPPDQQRLIWAGKQLEDGRTLSDYNIRNPDILHLVLRLRAAGIGMQIFVHTMTGKTITLEVEPSDTIENVKAKIQDKEGIPPDQQRLIWAGKQLEDGRTLSDYNIGAGTMLHLVLRLRAA
# notes: also called Affilin 139864; clone 139864
# B45: 139901 (designed binder)
# Affilin of two ubiquitin moieties: B44 Affilin of two ubiquitin moieties with P8D, N63H, H85N, M87F, G141Y, A142N, T144M, M145F
# notes: also called Affilin 139901
# Target: T1, Recombinant human EGFR-Fc Chimera (R&D Systems, catalog no. 344-ER-050) (human, UniProt P00533 25-645)
# T1 construct: range 1-645; Bought reagent; Immobilised on the CM5 chip for SPR; also called hEGFR-Fc; not shown: Fc region of human IgG1, fused at the C-terminus
# Assay: SPR (Biacore) on immobilised hEGFR-Fc
row,Binder,Kd [nM]
1,B1,2
2,B2,133
3,B3,130
4,B4,110
5,B5,60
6,B6,150
7,B7,220
8,B8,537
9,B9,550
10,B10,61
11,B11,0.97
12,B12,184
13,B13,243
14,B14,274
15,B15,19
16,B16,33
17,B17,57
18,B18,80
19,B19,86
20,B20,90
21,B21,127
22,B22,143
23,B23,160

row,Binder,Kd [nM]
1,B24,162
2,B25,174
3,B26,413
4,B27,703
5,B28,64
6,B29,91
7,B30,100
8,B31,180
9,B32,48
10,B33,70
11,B34,100
12,B35,106
13,B36,126
14,B37,140
15,B38,176
16,B39,240
17,B40,244
18,B41,9
19,B42,66
20,B43,169
21,B44,536
22,B45,61
